Source: PMC5062570 (Nature Communications, 2016)
Values joined by “and” are separate entries in the source; they are usually repeats but may differ in a detail not shown here. Equal entries are not always repeated.

Tests used:
[1] = target: PF-7802-labelled proteins in ARPE-19 cells (Homo sapiens, UniProt P46940); conditions: for Median SILAC Ratio (Heavy/Light): protein IQGAP1 Ras GTPase-activating-like protein IQGAP1 (P46940), one column per replicate
[2] = target: PF-7802-labelled proteins in ARPE-19 cells (Homo sapiens, UniProt P61026); conditions: protein RAB10 Ras-related protein Rab-10, P61026
UniProt P61026, sequence (P61026 whole entry): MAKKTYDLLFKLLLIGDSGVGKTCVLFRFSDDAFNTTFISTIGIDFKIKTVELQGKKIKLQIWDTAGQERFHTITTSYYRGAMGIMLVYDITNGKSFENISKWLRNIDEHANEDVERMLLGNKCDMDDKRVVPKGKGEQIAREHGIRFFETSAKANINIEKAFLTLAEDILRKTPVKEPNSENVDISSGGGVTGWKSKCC

[3] = target: T1, PF-7802-labelled proteins in ARPE-19 cells (Homo sapiens, UniProt Q15084); conditions: for Median SILAC Ratio (Heavy/Light): protein PDIA6 Protein disulfide-isomerase A6 (Q15084), replicates in separate columns
T1 sequence (Q15084 20-440): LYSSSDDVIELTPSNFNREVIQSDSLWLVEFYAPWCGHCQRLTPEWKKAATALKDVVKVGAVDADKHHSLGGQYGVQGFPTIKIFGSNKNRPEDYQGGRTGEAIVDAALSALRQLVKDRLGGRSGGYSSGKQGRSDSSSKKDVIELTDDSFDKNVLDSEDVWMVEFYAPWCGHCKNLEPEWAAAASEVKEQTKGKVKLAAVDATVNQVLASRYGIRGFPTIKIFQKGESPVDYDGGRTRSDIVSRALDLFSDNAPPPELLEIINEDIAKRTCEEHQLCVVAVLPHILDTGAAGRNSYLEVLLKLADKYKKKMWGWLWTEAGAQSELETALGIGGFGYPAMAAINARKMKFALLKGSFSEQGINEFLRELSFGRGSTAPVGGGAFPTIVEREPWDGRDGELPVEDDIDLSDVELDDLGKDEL

[4] = target: PF-7802-labelled proteins in ARPE-19 cells (Homo sapiens, UniProt P29144); conditions: TPP2 Tripeptidyl-peptidase 2 (P29144)
[5] = target: PF-7802-labelled proteins in ARPE-19 cells (Homo sapiens, UniProt O00159); conditions: for Median SILAC Ratio (Heavy/Light): protein MYO1C Unconventional myosin-Ic (O00159), replicates in separate columns
[6] = target: T2, PF-7802-labelled proteins in ARPE-19 cells (Homo sapiens, UniProt P00387); conditions: for Median SILAC Ratio (Heavy/Light): protein CYB5R3 NADH-cytochrome b5 reductase 3 (P00387)
T2 sequence (P00387 1-301): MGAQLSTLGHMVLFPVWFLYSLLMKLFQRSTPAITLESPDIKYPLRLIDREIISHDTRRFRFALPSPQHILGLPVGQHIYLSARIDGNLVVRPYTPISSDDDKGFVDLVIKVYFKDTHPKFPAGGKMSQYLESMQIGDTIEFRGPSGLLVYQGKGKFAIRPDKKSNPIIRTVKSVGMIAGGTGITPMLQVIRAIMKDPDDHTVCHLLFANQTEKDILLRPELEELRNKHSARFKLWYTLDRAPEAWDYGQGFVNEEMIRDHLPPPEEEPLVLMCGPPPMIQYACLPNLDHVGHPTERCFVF

[7] = target: PF-7802-labelled proteins in ARPE-19 cells (Homo sapiens, UniProt Q9Y490); conditions: TLN1 Talin-1 (Q9Y490)
[8] = target: PF-7802-labelled proteins in ARPE-19 cells (Homo sapiens, UniProt P35580); conditions: for Median SILAC Ratio (Heavy/Light): protein MYH10 Myosin-10 (P35580), replicates in separate columns
UniProt P35580, sequence (P35580 whole entry): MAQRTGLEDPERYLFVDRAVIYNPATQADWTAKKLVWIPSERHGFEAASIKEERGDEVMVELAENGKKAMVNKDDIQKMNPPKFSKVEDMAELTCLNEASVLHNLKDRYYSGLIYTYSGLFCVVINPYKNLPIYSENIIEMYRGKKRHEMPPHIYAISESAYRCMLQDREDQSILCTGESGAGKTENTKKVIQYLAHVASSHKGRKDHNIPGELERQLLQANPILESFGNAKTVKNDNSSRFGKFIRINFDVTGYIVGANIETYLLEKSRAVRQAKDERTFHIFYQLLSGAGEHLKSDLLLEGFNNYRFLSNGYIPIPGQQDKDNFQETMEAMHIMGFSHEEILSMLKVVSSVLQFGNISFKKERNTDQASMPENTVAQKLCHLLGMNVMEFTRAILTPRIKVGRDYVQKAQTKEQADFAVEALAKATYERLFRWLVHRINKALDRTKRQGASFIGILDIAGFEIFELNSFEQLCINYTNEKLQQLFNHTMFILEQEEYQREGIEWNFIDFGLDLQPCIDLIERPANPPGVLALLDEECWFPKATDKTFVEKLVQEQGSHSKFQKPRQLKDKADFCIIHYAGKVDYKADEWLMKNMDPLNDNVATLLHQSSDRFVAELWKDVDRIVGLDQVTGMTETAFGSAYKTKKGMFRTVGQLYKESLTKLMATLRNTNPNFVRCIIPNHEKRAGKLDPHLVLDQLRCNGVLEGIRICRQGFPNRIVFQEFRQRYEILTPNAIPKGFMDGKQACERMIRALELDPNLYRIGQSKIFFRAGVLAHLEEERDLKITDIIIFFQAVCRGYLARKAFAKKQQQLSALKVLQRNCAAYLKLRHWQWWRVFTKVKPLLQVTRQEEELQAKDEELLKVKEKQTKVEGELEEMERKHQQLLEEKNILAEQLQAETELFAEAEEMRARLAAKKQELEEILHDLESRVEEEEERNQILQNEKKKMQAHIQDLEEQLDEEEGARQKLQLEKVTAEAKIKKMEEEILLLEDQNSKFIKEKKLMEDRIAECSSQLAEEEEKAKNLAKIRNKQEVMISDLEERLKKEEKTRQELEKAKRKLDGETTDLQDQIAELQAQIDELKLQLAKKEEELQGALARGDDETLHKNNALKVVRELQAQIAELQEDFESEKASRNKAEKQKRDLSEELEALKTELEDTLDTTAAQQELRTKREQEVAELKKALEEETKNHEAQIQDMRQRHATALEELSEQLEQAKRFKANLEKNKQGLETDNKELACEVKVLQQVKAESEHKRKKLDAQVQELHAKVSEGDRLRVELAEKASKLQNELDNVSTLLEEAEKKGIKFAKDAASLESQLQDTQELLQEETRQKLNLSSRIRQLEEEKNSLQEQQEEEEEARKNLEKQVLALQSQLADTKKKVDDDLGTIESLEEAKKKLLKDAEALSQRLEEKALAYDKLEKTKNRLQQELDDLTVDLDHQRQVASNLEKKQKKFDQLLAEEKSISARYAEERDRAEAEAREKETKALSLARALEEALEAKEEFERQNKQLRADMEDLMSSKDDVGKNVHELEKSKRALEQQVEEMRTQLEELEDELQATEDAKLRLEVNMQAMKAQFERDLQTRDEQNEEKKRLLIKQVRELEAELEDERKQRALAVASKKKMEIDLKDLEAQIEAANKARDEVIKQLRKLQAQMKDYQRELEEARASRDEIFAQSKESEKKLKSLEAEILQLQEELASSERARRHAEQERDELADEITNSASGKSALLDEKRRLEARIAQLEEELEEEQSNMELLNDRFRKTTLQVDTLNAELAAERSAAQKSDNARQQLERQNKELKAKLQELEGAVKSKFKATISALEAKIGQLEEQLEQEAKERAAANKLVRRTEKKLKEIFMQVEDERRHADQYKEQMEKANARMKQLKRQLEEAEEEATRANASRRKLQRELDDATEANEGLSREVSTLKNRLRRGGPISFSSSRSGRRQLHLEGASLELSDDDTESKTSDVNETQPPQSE

[9] = target: PF-7802-labelled proteins in ARPE-19 cells (Homo sapiens, UniProt P30038); conditions: protein ALDH4A1 Delta-1-pyrroline-5-carboxylate dehydrogenase, mitochondrial (P30038)
[10] = target: PF-7802-labelled proteins in ARPE-19 cells (Homo sapiens, UniProt O60716); conditions: protein CTNND1 Catenin delta-1 (O60716)
[11] = target: T3, PF-7802-labelled proteins in ARPE-19 cells (Homo sapiens, UniProt P49368); conditions: for Median SILAC Ratio (Heavy/Light): protein CCT3 T-complex protein 1 subunit gamma (P49368)
T3 sequence (P49368 1-545): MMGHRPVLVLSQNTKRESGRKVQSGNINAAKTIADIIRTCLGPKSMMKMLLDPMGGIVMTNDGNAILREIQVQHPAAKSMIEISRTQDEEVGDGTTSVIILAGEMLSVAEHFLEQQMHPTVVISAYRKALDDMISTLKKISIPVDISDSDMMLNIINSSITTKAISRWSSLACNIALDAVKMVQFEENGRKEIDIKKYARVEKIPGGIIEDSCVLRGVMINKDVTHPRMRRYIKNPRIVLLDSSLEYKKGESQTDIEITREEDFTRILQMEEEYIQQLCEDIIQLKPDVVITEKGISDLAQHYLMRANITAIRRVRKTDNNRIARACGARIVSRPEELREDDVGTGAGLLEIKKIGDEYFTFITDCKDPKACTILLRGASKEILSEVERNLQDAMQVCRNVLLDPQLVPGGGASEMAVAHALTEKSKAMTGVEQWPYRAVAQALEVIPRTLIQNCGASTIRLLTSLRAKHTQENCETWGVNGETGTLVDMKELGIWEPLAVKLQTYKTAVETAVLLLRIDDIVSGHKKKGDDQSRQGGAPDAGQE

[12] = target: PF-7802-labelled proteins in ARPE-19 cells (Homo sapiens, UniProt P35222); conditions: protein CTNNB1 Catenin beta-1 (P35222)
[13] = target: PF-7802-labelled proteins in ARPE-19 cells (Homo sapiens, UniProt P68366); conditions: for Median SILAC Ratio (Heavy/Light): TUBA4A Tubulin alpha-4A chain (P68366)
UniProt P68366, sequence (P68366 whole entry): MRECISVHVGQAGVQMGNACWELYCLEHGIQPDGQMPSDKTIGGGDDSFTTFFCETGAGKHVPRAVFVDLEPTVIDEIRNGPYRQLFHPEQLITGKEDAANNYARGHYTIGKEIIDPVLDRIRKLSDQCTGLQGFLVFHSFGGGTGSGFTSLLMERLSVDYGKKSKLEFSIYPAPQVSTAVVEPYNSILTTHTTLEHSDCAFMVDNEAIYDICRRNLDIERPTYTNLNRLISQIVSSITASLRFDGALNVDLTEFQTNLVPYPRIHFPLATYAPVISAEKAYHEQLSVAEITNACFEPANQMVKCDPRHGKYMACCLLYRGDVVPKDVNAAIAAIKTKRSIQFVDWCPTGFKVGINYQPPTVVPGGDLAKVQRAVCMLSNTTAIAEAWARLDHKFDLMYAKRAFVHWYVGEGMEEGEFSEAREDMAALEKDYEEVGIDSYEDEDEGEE

[14] = target: PF-7802-labelled proteins in ARPE-19 cells (Homo sapiens, UniProt Q7Z794); conditions: protein KRT77 Keratin, type II cytoskeletal 1b (Q7Z794); one column per replicate
UniProt Q7Z794, sequence (Q7Z794 whole entry, the tested form may be a part): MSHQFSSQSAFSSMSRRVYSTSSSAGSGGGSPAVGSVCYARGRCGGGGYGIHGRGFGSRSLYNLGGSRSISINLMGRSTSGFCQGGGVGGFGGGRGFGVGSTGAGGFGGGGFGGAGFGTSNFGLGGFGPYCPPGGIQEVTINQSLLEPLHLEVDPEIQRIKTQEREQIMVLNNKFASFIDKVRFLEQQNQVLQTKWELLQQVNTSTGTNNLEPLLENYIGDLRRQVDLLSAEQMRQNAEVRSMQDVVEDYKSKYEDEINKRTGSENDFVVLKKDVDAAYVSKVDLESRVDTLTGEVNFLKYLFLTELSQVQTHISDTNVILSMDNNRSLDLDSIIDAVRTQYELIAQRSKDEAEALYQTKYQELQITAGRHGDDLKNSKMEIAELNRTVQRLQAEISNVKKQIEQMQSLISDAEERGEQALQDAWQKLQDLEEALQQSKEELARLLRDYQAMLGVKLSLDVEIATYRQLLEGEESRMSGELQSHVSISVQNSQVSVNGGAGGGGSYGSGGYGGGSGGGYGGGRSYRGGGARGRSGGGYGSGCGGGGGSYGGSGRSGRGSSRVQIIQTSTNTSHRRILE

[15] = target: PF-7802-labelled proteins in ARPE-19 cells (Homo sapiens, UniProt Q07666); conditions: protein KHDRBS1 KH domain-containing, RNA-binding, signal transduction-associated protein 1 (Q07666); one column per replicate

UniProt P46940, sequence (P46940 whole entry): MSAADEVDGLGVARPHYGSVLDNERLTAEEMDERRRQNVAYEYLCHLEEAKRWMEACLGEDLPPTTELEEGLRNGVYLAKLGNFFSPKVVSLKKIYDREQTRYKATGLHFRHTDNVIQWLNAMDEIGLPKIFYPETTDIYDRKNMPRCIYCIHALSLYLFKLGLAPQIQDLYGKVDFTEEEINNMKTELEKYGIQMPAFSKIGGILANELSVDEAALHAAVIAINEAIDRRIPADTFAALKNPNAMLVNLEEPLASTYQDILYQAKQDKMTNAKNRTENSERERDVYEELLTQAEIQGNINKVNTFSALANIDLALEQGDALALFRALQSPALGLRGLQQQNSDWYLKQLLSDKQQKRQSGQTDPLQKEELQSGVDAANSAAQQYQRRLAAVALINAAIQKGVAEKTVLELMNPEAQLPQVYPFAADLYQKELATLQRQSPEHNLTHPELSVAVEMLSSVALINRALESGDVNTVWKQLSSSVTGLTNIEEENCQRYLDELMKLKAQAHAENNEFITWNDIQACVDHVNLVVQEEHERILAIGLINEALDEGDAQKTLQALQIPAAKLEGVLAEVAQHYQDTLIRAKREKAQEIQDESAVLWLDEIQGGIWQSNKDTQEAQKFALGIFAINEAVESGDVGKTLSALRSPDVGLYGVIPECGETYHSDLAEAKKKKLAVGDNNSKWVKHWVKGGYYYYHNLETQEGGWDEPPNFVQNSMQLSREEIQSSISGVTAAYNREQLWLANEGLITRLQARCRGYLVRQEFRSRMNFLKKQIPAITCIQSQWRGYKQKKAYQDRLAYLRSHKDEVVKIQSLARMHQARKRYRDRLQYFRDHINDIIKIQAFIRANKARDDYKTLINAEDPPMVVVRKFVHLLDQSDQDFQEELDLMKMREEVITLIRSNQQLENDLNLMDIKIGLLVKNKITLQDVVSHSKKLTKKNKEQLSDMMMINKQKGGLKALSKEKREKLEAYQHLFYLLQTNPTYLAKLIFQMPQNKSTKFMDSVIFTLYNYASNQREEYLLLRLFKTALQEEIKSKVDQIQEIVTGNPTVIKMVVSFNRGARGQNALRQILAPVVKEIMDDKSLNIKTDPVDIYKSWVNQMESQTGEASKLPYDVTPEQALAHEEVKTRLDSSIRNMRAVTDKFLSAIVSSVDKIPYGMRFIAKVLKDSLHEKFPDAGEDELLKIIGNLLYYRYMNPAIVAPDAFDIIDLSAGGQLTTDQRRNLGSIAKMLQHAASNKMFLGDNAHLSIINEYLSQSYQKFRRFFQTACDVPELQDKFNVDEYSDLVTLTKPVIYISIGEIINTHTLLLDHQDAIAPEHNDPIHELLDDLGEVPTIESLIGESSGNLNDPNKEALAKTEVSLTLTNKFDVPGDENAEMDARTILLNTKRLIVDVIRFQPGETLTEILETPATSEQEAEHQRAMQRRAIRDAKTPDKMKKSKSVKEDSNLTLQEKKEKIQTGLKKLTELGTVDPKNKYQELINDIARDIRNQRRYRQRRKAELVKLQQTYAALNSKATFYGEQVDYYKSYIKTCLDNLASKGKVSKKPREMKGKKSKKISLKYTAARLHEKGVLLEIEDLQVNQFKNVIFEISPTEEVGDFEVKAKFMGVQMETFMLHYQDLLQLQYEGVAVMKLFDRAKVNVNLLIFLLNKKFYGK

Compound | Median SILAC Ratio (Heavy/Light) [1] | Median SILAC Ratio (Heavy/Light) [2] | Median SILAC Ratio (Heavy/Light) [3] | Median SILAC Ratio (Heavy/Light) [4] | Median SILAC Ratio (Heavy/Light) [5] | Median SILAC Ratio (Heavy/Light) [6] | Median SILAC Ratio (Heavy/Light) [7] | Median SILAC Ratio (Heavy/Light) [8] | Median SILAC Ratio (Heavy/Light) [9] | Median SILAC Ratio (Heavy/Light) [10] | Median SILAC Ratio (Heavy/Light) [11] | Median SILAC Ratio (Heavy/Light) [12] | Median SILAC Ratio (Heavy/Light) [13] | Median SILAC Ratio (Heavy/Light) [14] | Median SILAC Ratio (Heavy/Light) [15] | also measured
CNC1CCN(C(=O)C[C@@H](Cc2ccccc2)C(=O)N[C@@H](CSC)C(=O)N[C@@H](CC2CCCCC2)[C@@H](O)C(=O)OC(C)C)CC1 [CP-108671, reference compound] | 1.525 | 1.926 | 1.078 | 1.313 | 1.165 | 1.077 | 2.133 | 1.722 | 0.9934 | 0.5395 | 1.467 | 1.205 | 2.243 | 76.8053 | 0.9475 | SILAC ratio (DMSO/CP-108671) ([1]; P46940 IQGAP1 Ras GTPase-activating-like protein IQGAP1): 0.66; SILAC ratio (DMSO/CP-108671) ([3]; Q15084 PDIA6 Protein disulfide-isomerase A6): 0.93; SILAC ratio (DMSO/CP-108671) ([5]; O00159 MYO1C Unconventional myosin-Ic): 0.86; SILAC ratio (DMSO/CP-108671) ([6]; P00387 CYB5R3 NADH-cytochrome b5 reductase 3): 0.93; SILAC ratio (DMSO/CP-108671) ([8]; P35580 MYH10 Myosin-10): 0.58; SILAC ratio (DMSO/CP-108671) ([11]; P49368 CCT3 T-complex protein 1 subunit gamma): 0.68; SILAC ratio (DMSO/CP-108671) ([13]; P68366 TUBA4A Tubulin alpha-4A chain): 0.45
Cc1cc([C@H]2C[C@H]3[C@@H](C)SC(N)=N[C@@]3(c3ccc(F)cc3F)CO2)on1 [PF-9283] | 1.659 and 1.525 | 1.403 | 1.274 and 1.02 | 1.203 | 1.3405 and 0.8231 | 1.354 and 1.222 | 1.751 | 1.688 | 1.729 | 0.9354 | 1.243 | 1.331 | 1.8705 and 1.786 | 33.4664 and 50.9514 | 1.129 | 
